Measured values as given in PubChem BioAssay AID757 (NMMLSC, 2007).
About 520 (0.27%) of roughly 190,000 compounds were called active. This list was built around the results that the source calls inconclusive (neither active nor inactive); the mix of calls is not that of the screen.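 The calls were made as follows: active = GTP binding activity at least 20 points away from the 100% control level, either lower or higher; inconclusive = compound flagged as likely green fluorescent, judged across all proteins; inactive = the rest.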

The compounds below were run against Ras-related C3 botulinum toxin substrate 1 (Homo sapiens) (UniProt P63000) (assay: wildtype Rac1 GTP binding modulators, primary screen, biochemical, GST-Rac1 beads, flow cytometry, multiplex (AID 757)). Details: fluorescent GTP binding, at 10 µM, actives lie on both sides, 0 = cold GTP competed, 100 = untreated.
O=C(CNS(=O)(=O)c1cccs1)NCc1ccccc1 was tested, and the GTP binding activity (% of control) was inactive: 99%.
In the case of Cc1ccc2c(CSc3nncn3C)cc(=O)oc2c1C, the GTP binding activity (% of control) is reported as inconclusive: 95%.
With CS(=O)(=O)N1CCN(c2ccccc2NC(=O)c2ccco2)CC1 the GTP binding activity (% of control) was inconclusive: 92%.
For Cc1cccc(N2C(=O)CC(N(O)c3ccccc3)C2=O)c1 (stereo unspecified), the GTP binding activity (% of control) was inconclusive: 104%.
With Cc1ccc2c(c1)N(CCC(=O)NC1CC1)C(=O)C(C)O2 (stereo unspecified) the GTP binding activity (% of control) was inconclusive: 102%.
CCC(Sc1nc(N)c(NC(=O)c2ccc(OC)cc2)c(=O)[nH]1)C(=O)O (stereo unspecified) was tested, and the GTP binding activity (% of control) was inactive: 94%.
With NC(=S)Nc1nccc(-c2cccs2)n1 the GTP binding activity (% of control) was inconclusive: 90%.
For CCOC(=O)c1c(N)sc(C(=O)Nc2ccccc2)c1C, the GTP binding activity (% of control) was inconclusive: 93%.
O=C(Cc1ccc(Cl)cc1)Nc1ccc2c(c1)C(=O)NC2=O was tested, and the GTP binding activity (% of control) was inactive: 90%.
In the case of O=S(=O)(c1ccc(F)cc1)n1ccc2cccnc21, the GTP binding activity (% of control) is reported as inconclusive: 111%.
In the case of Cc1ccc(-c2c[n+](CC(=O)Nc3cc(=O)n(C)c(=O)n3C)c3n2CCC3)cc1, the GTP binding activity (% of control) is reported as inactive: 110%.
With Cc1ccc(CNC(=O)C2CCN(S(=O)(=O)N3CCCCC3)CC2)cc1 the GTP binding activity (% of control) was inconclusive: 98%.
In the case of CN(CC(=O)N1CCN(c2cccc(Cl)c2)CC1)S(=O)(=O)c1cccs1, the GTP binding activity (% of control) is reported as inactive: 96%.
With CC(=O)c1cc(-c2ccccc2)n(CC(=O)Nc2cccc(C)c2C)c1C the GTP binding activity (% of control) was inconclusive: 101%.
For CCn1c2ccccc2c2nc3cc(C(=O)O)ccc3nc21, the GTP binding activity (% of control) was active: 77%.
CC1=C(C#N)c2nc(N)c(C#N)c(C)c2/C1=C\c1ccc(-c2ccccc2C(=O)O)o1 was tested, and the GTP binding activity (% of control) was active: 75%.
O=[N+]([O-])c1ccc(OCc2cnc(Cl)s2)c([N+](=O)[O-])c1 was tested, and the GTP binding activity (% of control) was inactive: 95%.
COc1ccc(NC(=O)CSc2ccc3nnc(-c4cccnc4)n3n2)c(OC)c1 was tested, and the GTP binding activity (% of control) was active: 79%.
CCCN(CCC)CCCNC(=S)Nc1ccc2nc(N3CCCC3)cc(C)c2c1 was tested, and the GTP binding activity (% of control) was inconclusive: 99%.
For O=C(Nc1cccc(-c2ccc3nncn3n2)c1)c1ccco1, the GTP binding activity (% of control) was active: 77%.
For Cn1c(NC(=S)Nc2ccccc2)nc2ccccc21, the GTP binding activity (% of control) was inconclusive: 121%.
With Cn1cccc1/C=C1\SC(=S)N(NC(=O)c2cccc(Cl)c2)C1=O the GTP binding activity (% of control) was inconclusive: 96%.
For Cc1cccc(C)c1OCc1n[nH]c(=S)n1N, the GTP binding activity (% of control) was inconclusive: 99%.
In the case of CCn1c(=O)cc(OCC(=O)NCCCN2CCN(c3cccc(Cl)c3)CC2)c2ccccc21, the GTP binding activity (% of control) is reported as inconclusive: 91%.
For CC(C)NC(=O)CSc1nnc(-c2ccncc2)n1-c1ccccc1, the GTP binding activity (% of control) was inconclusive: 108%.
For O=S(=O)(NC1CCCC1)c1cccc(S(=O)(=O)N2CCC(n3nnc4ccccc43)CC2)c1, the GTP binding activity (% of control) was inconclusive: 98%.
CCCCCOc1ccc(NC(=O)C(=O)NCCC2=CCCCC2)cc1 was tested, and the GTP binding activity (% of control) was inconclusive: 107%.
In the case of N#Cc1ccc(OCC(=O)NCCc2ccc(S(N)(=O)=O)cc2)cc1, the GTP binding activity (% of control) is reported as inconclusive: 106%.
With COCc1cc(C)nc2sc(C(=O)Nc3nccs3)c(N)c12 the GTP binding activity (% of control) was inconclusive: 82%.
In the case of CCOC(=O)C1C(=O)OC(C)(C)C1C(C)C(=O)c1ccc(C)cc1C (stereo unspecified), the GTP binding activity (% of control) is reported as inconclusive: 95%.
In the case of O=C(CSC1CC(=O)N(c2ccc(C(=O)O)cc2)C1=O)Nc1ccc(Cl)cc1 (stereo unspecified), the GTP binding activity (% of control) is reported as inactive: 99%.
In the case of Cc1ccc(S(=O)(=O)NCC(=O)OC(C)C(=O)Nc2ncc(Cl)cc2Cl)cc1 (stereo unspecified), the GTP binding activity (% of control) is reported as inconclusive: 99%.
CSCCC(NC(=O)c1ccccc1)C(=O)O (stereo unspecified) was tested, and the GTP binding activity (% of control) was inconclusive: 95%.
In the case of C=CCNC(=O)c1cc(Cl)ccc1Cl, the GTP binding activity (% of control) is reported as inconclusive: 106%.
In the case of Cc1sc2ncnc(Sc3ccccc3C(=O)O)c2c1C, the GTP binding activity (% of control) is reported as active: 145% [activator].
Brc1ccc(Nc2nc3ccccc3n3nnnc23)cc1 was tested, and the GTP binding activity (% of control) was inconclusive: 105%.
Cc1cc(Nc2ccc(F)cc2)n2nc(C)nc2n1 was tested, and the GTP binding activity (% of control) was inconclusive: 107%.
For Cc1ccc2cc3c(NC(=O)C4CCCO4)nn(CC(C)C)c3nc2c1 (stereo unspecified), the GTP binding activity (% of control) was inconclusive: 107%.
For COc1ccc(-c2csc(C3=C(O)CN(C(C)C)C3=N)n2)cc1OC, the GTP binding activity (% of control) was active: 73%.
In the case of COc1ccccc1NC(=O)c1ccc(-c2ccc(Br)cc2)o1, the GTP binding activity (% of control) is reported as inconclusive: 92%.
C/C(=C/C(=O)O)C(=O)Nc1cccc(C(F)(F)F)c1 was tested, and the GTP binding activity (% of control) was inactive: 101%.
In the case of O=C(Nc1cccc(F)c1)NC1CC2CCCC(C1)N2C1CC1 (stereo unspecified), the GTP binding activity (% of control) is reported as inconclusive: 108%.
With Fc1ccccc1NC(=S)N1CCN(Cc2ccccc2)CC1 the GTP binding activity (% of control) was inconclusive: 107%.
With COc1ccc2ccccc2c1CN1CCN(Cc2ccccc2)CC1 the GTP binding activity (% of control) was inconclusive: 104%.
CCCCN(C(=O)CSc1cc(C)c2ccccc2n1)c1c(N)n(Cc2ccccc2)c(=O)[nH]c1=O was tested, and the GTP binding activity (% of control) was inconclusive: 103%.
S=C(Nc1ccccc1)N1CCn2c(nc3ccccc32)C1 was tested, and the GTP binding activity (% of control) was inactive: 95%.
For CC(=O)OCC#CCSc1nc2ccccc2n1C, the GTP binding activity (% of control) was inconclusive: 103%.
In the case of CC(C)(O)C#Cc1ccc(C(=O)NCCc2ccc(S(N)(=O)=O)cc2)cc1, the GTP binding activity (% of control) is reported as inconclusive: 90%.
With COc1ccc(C(=O)C2CCCN(S(=O)(=O)C(C)C)C2)c(C)c1 (stereo unspecified) the GTP binding activity (% of control) was inactive: 95%.
Cc1cc(=O)nc2c3ccccc3n(C(C)C(=O)Nc3c(F)c(F)c(F)c(F)c3F)n12 (stereo unspecified) was tested, and the GTP binding activity (% of control) was inconclusive: 92%.
For COc1cnc(-c2ccccn2)nc1Sc1ccc(Cl)cc1, the GTP binding activity (% of control) was inconclusive: 104%.
CCOC(=O)c1cc2sc(C)cc2n1CC(=O)Nc1ccc2c(c1)OCCO2 was tested, and the GTP binding activity (% of control) was inconclusive: 98%.
For CCCCNC(=O)c1cc([N+](=O)[O-])[nH]n1, the GTP binding activity (% of control) was active: 127% [activator].
O=C(CO/N=C1\CCCc2nonc21)Nc1ccc(Br)cc1 was tested, and the GTP binding activity (% of control) was inconclusive: 98%.
In the case of Cc1nn(CC(=O)NCc2cc3ccccc3[nH]2)c(C)c1[N+](=O)[O-], the GTP binding activity (% of control) is reported as inactive: 104%.
C/C(=N\N=C1\NC(=O)C(CC(=O)Nc2ccc(Cl)cc2)S1)c1ccco1 (stereo unspecified) was tested, and the GTP binding activity (% of control) was inconclusive: 90%.
Cc1[nH]n(-c2ccc([N+](=O)[O-])cc2)c(=O)c1C=NCCN1CCN(C(=O)c2cccc(F)c2)CC1 was tested, and the GTP binding activity (% of control) was inconclusive: 107%.
In the case of CC1(c2ccccc2)CC(C)(C)N2C(=O)Cc3cccc1c32 (stereo unspecified), the GTP binding activity (% of control) is reported as inactive: 93%.
O=C1c2ccccc2-n2c1nc1ccccc1c2=O was tested, and the GTP binding activity (% of control) was active: 77%.
With O=c1[nH]c2sc3c(c2c2nncn12)CCCC3 the GTP binding activity (% of control) was active: 76%.
CCOC(=O)c1nc(NCc2cccnc2)c2ccccc2n1 was tested, and the GTP binding activity (% of control) was inactive: 99%.
